The results in this text go back to patent US20250333445A1 (ONCOPEPTIDES INNOVATION 1, published 2025).

The target in assay [1] is T1, hCD16a V158 (Cat. no. CD8-H52H4, Acro Biosystems) (human, UniProt P08637 17-208).
T1 construct: also called human CD16a V158; hCD16a V158 allotype
Kind of assay: SPR, equilibrium responses, immobilised hCD16a. Background: SPR reads the build-up and loss of mass on a sensor chip optically.

Assay [2] deals with T2, hCD16a F158 (Cat. no. CDA-H5220, Acro Biosystems) (human, UniProt P08637 17-208).
T2 construct: also called human CD16a F158; hCD16a F158 allotype
The assay is described as follows: SPR, equilibrium responses, immobilised hCD16a.

Assay [3] has as its target T3, BCMA on MM.1S multiple myeloma cells (human, UniProt Q02223 1-184).
T3 sequence (looked up): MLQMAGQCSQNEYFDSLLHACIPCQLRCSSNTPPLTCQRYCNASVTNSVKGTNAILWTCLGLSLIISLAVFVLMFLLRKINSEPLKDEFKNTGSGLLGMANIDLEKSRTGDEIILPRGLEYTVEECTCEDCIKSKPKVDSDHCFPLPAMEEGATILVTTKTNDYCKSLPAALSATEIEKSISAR
The assay is described as follows: cell-based or functional assay.

Assay [4] has as its target T1, hCD16a V158 (Cat. no. CD8-H52H4, Acro …). The assay is described as follows: SPR (Biacore T200), 200 nM hCD16a over the engager held on immobilised hBCMA-rFc.
Assay [5] deals with T2, hCD16a F158 (Cat. no. CDA-H5220, Acro …). The description is as above.
In assay [6] the target is T1, hCD16a V158 (Cat. no. CD8-H52H4, Acro …). Kind of assay: SPR (Biacore T200), single cycle kinetics, immobilised hCD16a; apparent KD (avidity).
Assay [7] has as its target T2, hCD16a F158 (Cat. no. CDA-H5220, Acro …). Described as above.
Assay [8] shares this target. The assay is described as follows: SPR (Biacore 8K), 200 nM hCD16a over the thiol-coupled binder, 4 °C.
Assay [9] deals with T1, hCD16a V158 (Cat. no. CD8-H52H4, Acro …). The assay is described as follows: SPR, 200 nM hCD16a over thiol-immobilised binder, 4 °C.

B1: His6-H09-ABDWT (designed binder)
chain: GSSHHHHHHYYLEVDNKFNKEFWIAESEIESLPNLNIYQKWAFKYSLADDPSQSANLLAEAKKLNDAQAPKVDYVLAEAKVLANRELDKYGVSDYYKNLINNAKTVEGVKALIDEILAALP
B1: the Kd in assay [1] came to 4900 nM; in [2], 621 nM.

B2: Anti-BCMA (1-E6)-H09-A10-His6 (designed binder)
chain: VDNKFNKENQFADEEIAALPNLNFYQKWAFIRKLMDDPSQSANLLAEAKKLNDAQAPKGGGSGGGGSGGGGSGVDNKFNKEFWIAESEIESLPNLNIYQKWAFKYSLADDPSQSANLLAEAKKLNDAQAPKGGGSGGGGSGGGGSGVDNKFNKEVQMAQFEIRKLPNLNHHQSFAFIKSLMDDPSQSANLLAEAKKLNDAQAPKYYHHHHHH
notes: also called anti-hBCMA-H09-A10-His6
On to B2, for which, in [3], the “EC50, 8-hour flow cytometry-based killing assay, NK cells and MM.1s (E:T 5:1)” value came out at 0.4 nM; the “EC90, 8-hour flow cytometry-based killing assay, NK cells and MM.1s (E:T 5:1)” value was determined as 2 nM. For the same molecule, the binding result in assay [4] was “binds”. In assay [5], the binding result is on record as “binds”.

B3: Anti-BCMA (1-E6)-A10-A10-His6 (designed binder)
chain: VDNKFNKENQFADEEIAALPNLNFYQKWAFIRKLMDDPSQSANLLAEAKKLNDAQAPKGGGSGGGGSGGGGSGVDNKFNKEVQMAQFEIRKLPNLNHHQSFAFIKSLMDDPSQSANLLAEAKKLNDAQAPKGGGSGGGGSGGGGSGVDNKFNKEVQMAQFEIRKLPNLNHHQSFAFIKSLMDDPSQSANLLAEAKKLNDAQAPKYYHHHHHH
notes: also called anti-BCMA-A10-A10-His6
For B3, the “EC50, 8-hour flow cytometry-based killing assay, NK cells and MM.1s (E:T 5:1)” value in [3] was 0.4 nM. For the same molecule, the “EC90, 8-hour flow cytometry-based killing assay, NK cells and MM.1s (E:T 5:1)” value in assay [3] turned out to be 3.8 nM. In addition, the Kd in assay [6] is 0.3 nM; in assay [7], 0.4 nM.

B4: His6-A11-Cys (designed binder)
chain: GSSHHHHHHYYLEVDNKFNKEQFYARDEIDLLPNLNEDQKWAFYMSLIDDPSQSANLLAEAKKLNDAQAPKC
notes: immobilised on the chip by thiol coupling through the C-terminal Cys
Take B4: the binding result in assay [8] and in [9] was “binds” each time.
